# According to PubChem BioAssay AID686979 (National Center for Advancing Translational Sciences (NCATS), 2013):
# Among all 420,000 compounds or so, about 50,000 (12%) were called active. The inconclusive results got no clear call from the source; some entries with a clear call stand among them for comparison. Calls follow the shape of the dose curve; as a rule, active = well fitted inhibition curve with a large enough effect; inconclusive = small, poorly fitted or top-dose-only effect; inactive = flat fitted curve, though single readings scatter. No potency is given beside an inconclusive call; the fits are too rough.
# Assay: qHTS for Inhibitors of human tyrosyl-DNA phosphodiesterase 1 (TDP1): qHTS in cells in presence of CPT; also: nearly all actives have a fitted effect of over 55% in size
# Conditions: chicken DT40 Tdp1-/-;hTDP1 cells + 20 nM CPT, ATP luminescence, 48 h; activity change, negative = growth inhibition: at 46.2 µM (top of the series)
# Method in brief: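 Chicken DT40 Tdp1-/- cells complemented with human TDP1, 400 cells/well, exposed to compounds plus 20 nM camptothecin for at least 48 h at 37 C; viability read as ATP content by CellTiter-Glo luminescence.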
# % is scaled to controls: 0 for no effect and ±100 for the full control effect; potency is read from the fitted curve at half-maximal effect; tags tell the direction and shape of the fitted curve.
SMILES,"activity change, negative = growth inhibition",Potency
CSc1nc(N)c2ncn([C@H]3O[C@H](COP(=O)(O)OP(=O)(O)OP(=O)(O)O)[C@@H](O)[C@@H]3O)c2n1,inactive: -0.4%,
COc1ccc(-n2c3c(cc(C(=O)NCC(=O)c4ccccc4)c2=O)C(=O)CC(C)(C)C3)cc1,inactive: -15.4%,
CCC(=O)N1CCCC(C(=O)Nc2nc3ccccc3[nH]2)CC1 (configuration not stated),inactive: -4.71%,
CSc1ncc(S(=O)(=O)c2ccccc2)c(=O)[nH]1,inactive: 0.217%,
Cc1cnc(C=NNC(N)=S)c2cccc(N)c12,,active: 3.26 µM
O=C(Nc1ccc(Br)cc1)c1cc(S(=O)(=O)N2CCc3ccccc32)ccc1F,,active: 14.6 µM
CCOc1ccccc1CNC(=O)CN1C(=O)c2cccnc2Oc2ccc(C)cc21,,"inconclusive [inhibitor, single point]"
CCc1nc(SCC(=O)NC2CC2)c2c(C)c(C)sc2n1,,"inconclusive [inhibitor, single point]"
CCN1C(=O)[C@H]2[C@@H](c3ccc(C(F)(F)F)cc3)N[C@]3(CCCN(Cc4ccccc4)C3=O)[C@H]2C1=O,,active: 20.6 µM
COc1ccc(Cn2cccc(NC(=O)Nc3cccc(C#N)c3)c2=O)cc1,,"inconclusive [inhibitor, single point]"
CCn1c(=O)c2sccc2n2c(CCCC(=O)Nc3ccc(Oc4ccccc4)cc3)nnc12,,"inconclusive [inhibitor, single point]"
Cc1cccc(NC(=O)Nc2nnc([C@@H]3C[C@H](O)[C@@H](CO)O3)s2)c1,,"inconclusive [inhibitor, single point]"
COc1ccc(N(C)S(=O)(=O)c2cccc(C(=O)NC3CCC(C)CC3)c2)cc1 (configuration not stated),,"inconclusive [inhibitor, single point]"
COc1ccccc1C(=O)N1CCC(N2CCN(c3ccccc3OC)CC2)CC1,,"inconclusive [inhibitor, single point]"
CCOC(=O)c1ccc(NC(=S)N(CCN2CCCCCC2)Cc2cccs2)cc1,,"inconclusive [inhibitor, single point]"
Cc1ccc(C(=O)CCC(=O)NC2=NCCS2)cc1,,"inconclusive [inhibitor, single point]"
CC(C)N(Cc1nccn1C)C(=O)C1CCC(=O)N(CCc2ccccc2)C1 (configuration not stated),inactive: -2.48%,
COc1ccc(-c2noc(CC(=O)N(C)c3cc(Cl)c(OC)cc3OC)n2)cc1,,"inconclusive [inhibitor, partial curve]"
CCOc1ccc(C(=O)N2CCC3(CC2)NCCc2[nH]cnc23)cc1OCC,inactive: 7.06%,
CSc1cccc(NC(=O)c2sc3nc4n(c(=O)c3c2C)CCC4)c1,,"inconclusive [inhibitor, single point]"
CSc1ccccc1NC(=O)c1ccc([N+](=O)[O-])cc1,,"inconclusive [inhibitor, single point]"
NNc1ncnc2sc3c(c12)CCC3,,active: 8.2 µM
Cc1ccc(S(=O)(=O)NNC(=O)Nc2ccc(C)c(C)c2)c(C)c1,,"inconclusive [inhibitor, single point]"
COc1ccc(OC)c(NC(=O)N2CCC3(CC2)Oc2ccccc2C(=O)N3Cc2ccccc2F)c1,,"inconclusive [inhibitor, single point]"

SMILES,"activity change, negative = growth inhibition",Potency
COc1cccc(CNS(=O)(=O)c2c(C(=O)N3CCCC3)c(C)n(C)c2C)c1,inactive: -2.37%,
Cc1ccc(NC(=O)c2nc(S(C)(=O)=O)ncc2N(Cc2ccco2)Cc2ccco2)cc1,,active: 8.2 µM
CC(c1ccccn1)N(CCN(C)C)C(=S)Nc1ccccc1F (configuration not stated),inactive: -0.383%,
C/C(=N\Nc1cccc2cccnc12)c1ccc[nH]1,,active: 2.59 µM
COc1ccc(NC(=O)CN2C(=O)C(=O)c3ccccc32)c(OC)c1,,active: 4.11 µM
CC1C(=O)N2CCCc3cc(S(=O)(=O)NCc4ccc(Cl)cc4)cc1c32 (configuration not stated),,"inconclusive [inhibitor, single point]"
Cc1cc(C)cc(OCC(=O)N(Cc2ccco2)Cc2ccccc2Cl)c1,,active: 20.6 µM
Cc1ccc(C)c(NC(=O)C2(C)CCN2C(=O)C(C)C)c1 (configuration not stated),inactive: -12.4%,
O=C(Nc1ccc2c(c1)OCO2)c1sc2cc(Cl)ccc2c1Cl,,"inconclusive [inhibitor, single point]"
CCCN(CCC)S(=O)(=O)c1ccc(C(=O)N2CCCc3ccccc32)cc1,,"inconclusive [inhibitor, single point]"
COc1ccc(NS(=O)(=O)c2cccc(C(=O)NCC3(N4CCOCC4)CCCCC3)c2)cc1,,"inconclusive [inhibitor, single point]"
COc1ccc(NC(=O)CN(C)CC(=O)c2c(C)[nH]c3ccccc23)cc1,,"inconclusive [inhibitor, partial curve, poor fit]"
COC(=O)Nc1ccc(S(=O)(=O)N2CCN(C)CC2)cc1,inactive: 2.57%,
CCOC(=O)C1CCN(c2nc3ccccc3nc2C(C#N)C(=O)OC(C)C)CC1 (configuration not stated),,active: 16.4 µM
Cc1ccc(S(=O)(=O)c2nnn3c2nc(NC2CCCCC2)c2sccc23)cc1C,,"inconclusive [inhibitor, single point]"
Cc1ccc(S(=O)(=O)/C=C2\NC(=O)CS2)cc1,inactive: -2.15%,
COc1ccc(CCNC(=O)C(=O)NCC2OCCN2S(=O)(=O)c2ccc3c(c2)OCCO3)cc1 (configuration not stated),,active: 20.6 µM
COc1ccc(C(=O)OCc2cc(C)ccc2C)cc1S(=O)(=O)N1CCCC1,,"inconclusive [inhibitor, single point]"
Cc1ccc(OCCSc2nc3ccccc3n2CCC(=O)O)cc1,inactive: -19.9%,
Cc1ccc(-c2nc(-c3cccs3)c(-c3cccs3)[nH]2)cc1,,active: 14.6 µM
CNCCC=C1c2ccccc2C=Cc2ccccc21,,active: 16.4 µM
CCN(Cc1cnn(C)c1)C(=O)c1cc(COc2ccc3c(c2)CCCC3)on1,,active: 16.4 µM
Cc1ccc(-c2nc3ccccc3o2)cc1NC(=O)c1ccc2c(c1)OCO2,,"inconclusive [inhibitor, single point]"
